Source: PMC9911399, “Two distinct binding modes provide the RNA-binding protein RbFox with extraordinary sequence specificity”
Residue numbers refer to the chain shown, from its start. The list shows a part of the results.

T1: RBFOX1 RRM (Homo sapiens, UniProt Q9NWB1 109-208)
T1 sequence: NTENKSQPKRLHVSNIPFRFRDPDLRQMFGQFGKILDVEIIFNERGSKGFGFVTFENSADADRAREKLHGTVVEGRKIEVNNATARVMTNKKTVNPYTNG

B1: GAUAUUG (DNA:RNA)
RNA: GGGAGACCGGAAUUCAGAUUGUCCGAUAUUGUUAAAUCCCGUCGUAGCCACCA
DNA 1: CAATCTGAATTCCGGTCTCCC
DNA 2: TGGTGGCTACGACGGGATT
B2: AAUGACA (DNA:RNA)
RNA: B1 RNA with G25A, A28G, U29A, U30C, G31A
DNA 1: CAATCTGAATTCCGGTCTCCC
DNA 2: TGGTGGCTACGACGGGATT
B3: CACCGAG (DNA:RNA)
RNA: B1 RNA with G25C, U27C, A28C, U29G, U30A
DNA 1: CAATCTGAATTCCGGTCTCCC
DNA 2: TGGTGGCTACGACGGGATT
B4: CCUGUGG (DNA:RNA)
RNA: B1 RNA with G25C, A26C, A28G, U30G
DNA 1: CAATCTGAATTCCGGTCTCCC
DNA 2: TGGTGGCTACGACGGGATT
B5: CGUGCAA (DNA:RNA)
RNA: B1 RNA with G25C, A26G, A28G, U29C, U30A, G31A
DNA 1: CAATCTGAATTCCGGTCTCCC
DNA 2: TGGTGGCTACGACGGGATT
B6: GGUGAGC (DNA:RNA)
RNA: B1 RNA with A26G, A28G, U29A, U30G, G31C
DNA 1: CAATCTGAATTCCGGTCTCCC
DNA 2: TGGTGGCTACGACGGGATT
B7: CGCUUGU (DNA:RNA)
RNA: B1 RNA with G25C, A26G, U27C, A28U, U30G, G31U
DNA 1: CAATCTGAATTCCGGTCTCCC
DNA 2: TGGTGGCTACGACGGGATT
B8: CUAUUUC (DNA:RNA)
RNA: B1 RNA with G25C, A26U, U27A, A28U, G31C
DNA 1: CAATCTGAATTCCGGTCTCCC
DNA 2: TGGTGGCTACGACGGGATT
B9: AGUAACU (DNA:RNA)
RNA: B1 RNA with G25A, A26G, U29A, U30C, G31U
DNA 1: CAATCTGAATTCCGGTCTCCC
DNA 2: TGGTGGCTACGACGGGATT
B10: GAUGCGA (DNA:RNA)
RNA: B1 RNA with A28G, U29C, U30G, G31A
DNA 1: CAATCTGAATTCCGGTCTCCC
DNA 2: TGGTGGCTACGACGGGATT
B11: CUUCCGG (DNA:RNA)
RNA: B1 RNA with G25C, A26U, A28C, U29C, U30G
DNA 1: CAATCTGAATTCCGGTCTCCC
DNA 2: TGGTGGCTACGACGGGATT
B12: GGAGCUG (DNA:RNA)
RNA: B1 RNA with A26G, U27A, A28G, U29C
DNA 1: CAATCTGAATTCCGGTCTCCC
DNA 2: TGGTGGCTACGACGGGATT
B13: UUUUAAA (DNA:RNA)
RNA: B1 RNA with G25U, A26U, A28U, U29A, U30A, G31A
DNA 1: CAATCTGAATTCCGGTCTCCC
DNA 2: TGGTGGCTACGACGGGATT
B14: CUGAAAU (DNA:RNA)
RNA: B1 RNA with G25C, A26U, U27G, U29A, U30A, G31U
DNA 1: CAATCTGAATTCCGGTCTCCC
DNA 2: TGGTGGCTACGACGGGATT
B15: GGUAACC (DNA:RNA)
RNA: B1 RNA with A26G, U29A, U30C, G31C
DNA 1: CAATCTGAATTCCGGTCTCCC
DNA 2: TGGTGGCTACGACGGGATT
B16: AGAUUUC (DNA:RNA)
RNA: B1 RNA with G25A, A26G, U27A, A28U, G31C
DNA 1: CAATCTGAATTCCGGTCTCCC
DNA 2: TGGTGGCTACGACGGGATT
B17: ACGGUAA (DNA:RNA)
RNA: B1 RNA with G25A, A26C, U27G, A28G, U30A, G31A
DNA 1: CAATCTGAATTCCGGTCTCCC
DNA 2: TGGTGGCTACGACGGGATT
B18: GCACUCA (DNA:RNA)
RNA: B1 RNA with A26C, U27A, A28C, U30C, G31A
DNA 1: CAATCTGAATTCCGGTCTCCC
DNA 2: TGGTGGCTACGACGGGATT
B19: AGUCGUA (DNA:RNA)
RNA: B1 RNA with G25A, A26G, A28C, U29G, G31A
DNA 1: CAATCTGAATTCCGGTCTCCC
DNA 2: TGGTGGCTACGACGGGATT
B20: GUACAUA (DNA:RNA)
RNA: B1 RNA with A26U, U27A, A28C, U29A, G31A
DNA 1: CAATCTGAATTCCGGTCTCCC
DNA 2: TGGTGGCTACGACGGGATT
B21: AAGCUUC (DNA:RNA)
RNA: B1 RNA with G25A, U27G, A28C, G31C
DNA 1: CAATCTGAATTCCGGTCTCCC
DNA 2: TGGTGGCTACGACGGGATT
B22: ACCCACG (DNA:RNA)
RNA: B1 RNA with G25A, A26C, U27C, A28C, U29A, U30C
DNA 1: CAATCTGAATTCCGGTCTCCC
DNA 2: TGGTGGCTACGACGGGATT
B23: CAGAAAU (DNA:RNA)
RNA: B1 RNA with G25C, U27G, U29A, U30A, G31U
DNA 1: CAATCTGAATTCCGGTCTCCC
DNA 2: TGGTGGCTACGACGGGATT
B24: CUGGAAA (DNA:RNA)
RNA: GGGAGACCGGAAUUCAGAUUGUCCCUGGAAAUUAAAUCCCGUCGUAGCCACCA
DNA 1: CAATCTGAATTCCGGTCTCCC
DNA 2: TGGTGGCTACGACGGGATT
B25: AACAUGC (DNA:RNA)
RNA: B1 RNA with G25A, U27C, U30G, G31C
DNA 1: CAATCTGAATTCCGGTCTCCC
DNA 2: TGGTGGCTACGACGGGATT
B26: CAUGUAC (DNA:RNA)
RNA: B24 RNA with U26A, G27U, A29U, A31C
DNA 1: CAATCTGAATTCCGGTCTCCC
DNA 2: TGGTGGCTACGACGGGATT
B27: CCGCUAA (DNA:RNA)
RNA: B24 RNA with U26C, G28C, A29U
DNA 1: CAATCTGAATTCCGGTCTCCC
DNA 2: TGGTGGCTACGACGGGATT
B28: GGCCUGC (DNA:RNA)
RNA: B1 RNA with A26G, U27C, A28C, U30G, G31C
DNA 1: CAATCTGAATTCCGGTCTCCC
DNA 2: TGGTGGCTACGACGGGATT
B29: UUCGAUU (DNA:RNA)
RNA: B24 RNA with C25U, G27C, A30U, A31U
DNA 1: CAATCTGAATTCCGGTCTCCC
DNA 2: TGGTGGCTACGACGGGATT
B30: AAGUCAU (DNA:RNA)
RNA: B24 RNA with C25A, U26A, G28U, A29C, A31U
DNA 1: CAATCTGAATTCCGGTCTCCC
DNA 2: TGGTGGCTACGACGGGATT
B31: UGACGUC (DNA:RNA)
RNA: B1 RNA with G25U, A26G, U27A, A28C, U29G, G31C
DNA 1: CAATCTGAATTCCGGTCTCCC
DNA 2: TGGTGGCTACGACGGGATT

What follows are binders tested against T1, RBFOX1 RRM (assay: EMSA; HiTS-Eq, 1 nM pool, 10 min; buffer printed only for the single-RNA assays: 10 mM Tris pH 7.5, 150 mM NaCl, 3.4 mM EDTA, 0.001% NP-40, 30 C). Conditions: tags: His6 N-terminal (pET28a); label: 5' 32P.
How it was run: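 These values rest on relative association constants, computed from read-count changes of each RNA species versus the control reaction and normalised to the cognate motif. Reads came from free RNA recovered by 8% native PAGE after purified RbFox RRM (wild type or mutant) at increasing concentrations was equilibrated for 10 min in 50 µL with 1 nM of a 5′-radiolabelled pool with 7 randomized nucleotides and DNA-annealed flanks.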
With B1 the binding signal was 0.0154 KA relative to UGCAUGU. With B2 the binding signal was 0.000963 KA relative to UGCAUGU. B3 was tested, and the binding signal was 0.00504 KA relative to UGCAUGU. For B4, the binding signal was 0.00622 KA relative to UGCAUGU. B5 was tested, and the binding signal was 0.00925 KA relative to UGCAUGU. B6 was tested, and the binding signal was 0.0174 KA relative to UGCAUGU. For B7, the binding signal was 0.0265 KA relative to UGCAUGU. For B8, the binding signal was 0.00361 KA relative to UGCAUGU. With B9 the binding signal was 0.00464 KA relative to UGCAUGU. In the case of B10, the binding signal is reported as 0.0154 KA relative to UGCAUGU. In the case of B11, the binding signal is reported as 0.00903 KA relative to UGCAUGU. With B12 the binding signal was 0.0192 KA relative to UGCAUGU. For B13, the binding signal was 0.00266 KA relative to UGCAUGU. B14 was tested, and the binding signal was 0.00704 KA relative to UGCAUGU. With B15 the binding signal was 0.0112 KA relative to UGCAUGU. B16 was tested, and the binding signal was 0.00933 KA relative to UGCAUGU. B17 was tested, and the binding signal was 0.00861 KA relative to UGCAUGU. For B18, the binding signal was 0.00606 KA relative to UGCAUGU. In the case of B19, the binding signal is reported as 0.00771 KA relative to UGCAUGU. With B20 the binding signal was 0.00218 KA relative to UGCAUGU. B21 was tested, and the binding signal was 0.00771 KA relative to UGCAUGU. With B22 the binding signal was 0.000605 KA relative to UGCAUGU. For B23, the binding signal was 0.00172 KA relative to UGCAUGU. With B24 the binding signal was 0.0219 KA relative to UGCAUGU. With B25 the binding signal was 0.00362 KA relative to UGCAUGU. With B26 the binding signal was 0.00233 KA relative to UGCAUGU. With B27 the binding signal was 0.00033 KA relative to UGCAUGU. In the case of B28, the binding signal is reported as 0.0206 KA relative to UGCAUGU. In the case of B29, the binding signal is reported as 0.00889 KA relative to UGCAUGU. With B30 the binding signal was 0.00128 KA relative to UGCAUGU. In the case of B31, the binding signal is reported as 0.0179 KA relative to UGCAUGU.
